According to paper PMC4866044, “The RanBP2/RanGAP1*SUMO1/Ubc9 SUMO E3 ligase is a disassembly machine for Crm1-dependent nuclear export complexes” (Nature Communications, 2016):

Molecular target: T1, RanBP2-3/4 complex (RanBP2-3/4-His / RanGAP1*SUMO1 / Ubc9) (human, UniProt P49792 2304-3062; P46060 1-587; P63165; P63279, SUMO1 conjugated in vitro (C-terminal tail domain) | conjugated to RanGAP1)
T1 construct: RanBP2 (Nup358), human, aa 2,304-3,062, 86 kDa fragment spanning RanBD3 and RanBD4; RanGAP1, full length; SUMO1, conjugated to RanGAP1 in vitro; Ubc9, untagged, full length; also called RanBP2/RanGAP1*SUMO1/Ubc9 complex; RanBP2 complex; source: bacterial expression constructs; components purified, RanGAP1 SUMOylated in vitro, complex formed on ice overnight and purified on MonoQ; not shown: His, …
Assay: SEC; co-migration on Superdex200 5/150 GL; RanBP2 complex variant or fragment 0.5-1 μM with Crm1 variant or other receptor 1-2 μM; incubated in SAB (TB with 0.2 mg/ml ovalbumin, 0.05% Tween) on ice overnight, column in TB pH 7.3; peak fractions by SDS-PAGE and Coomassie
Settings: both partners purified

T1 sequence (P49792 2304-3062, chain 1 of 4): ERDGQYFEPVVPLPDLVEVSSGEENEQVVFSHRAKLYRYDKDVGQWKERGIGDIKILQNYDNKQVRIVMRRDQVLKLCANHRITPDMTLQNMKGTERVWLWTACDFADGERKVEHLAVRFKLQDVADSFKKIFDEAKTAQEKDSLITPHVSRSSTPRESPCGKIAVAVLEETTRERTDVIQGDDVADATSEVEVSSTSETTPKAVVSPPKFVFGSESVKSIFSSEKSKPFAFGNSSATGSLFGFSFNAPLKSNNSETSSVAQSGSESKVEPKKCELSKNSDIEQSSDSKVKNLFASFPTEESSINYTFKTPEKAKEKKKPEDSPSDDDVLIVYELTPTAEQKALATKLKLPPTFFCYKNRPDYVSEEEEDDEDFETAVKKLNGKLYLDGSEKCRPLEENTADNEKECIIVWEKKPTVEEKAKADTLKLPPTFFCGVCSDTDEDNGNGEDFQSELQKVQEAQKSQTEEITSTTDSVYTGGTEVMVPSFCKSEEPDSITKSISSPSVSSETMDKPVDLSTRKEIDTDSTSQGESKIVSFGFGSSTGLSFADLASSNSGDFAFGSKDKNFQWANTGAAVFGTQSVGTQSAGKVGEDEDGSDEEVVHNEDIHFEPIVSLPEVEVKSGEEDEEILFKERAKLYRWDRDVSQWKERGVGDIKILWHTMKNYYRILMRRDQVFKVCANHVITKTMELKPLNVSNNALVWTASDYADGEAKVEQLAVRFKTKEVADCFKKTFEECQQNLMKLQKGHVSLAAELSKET
T1 sequence (P46060 whole entry, chain 2 of 4, further chain, the tested form may be a part): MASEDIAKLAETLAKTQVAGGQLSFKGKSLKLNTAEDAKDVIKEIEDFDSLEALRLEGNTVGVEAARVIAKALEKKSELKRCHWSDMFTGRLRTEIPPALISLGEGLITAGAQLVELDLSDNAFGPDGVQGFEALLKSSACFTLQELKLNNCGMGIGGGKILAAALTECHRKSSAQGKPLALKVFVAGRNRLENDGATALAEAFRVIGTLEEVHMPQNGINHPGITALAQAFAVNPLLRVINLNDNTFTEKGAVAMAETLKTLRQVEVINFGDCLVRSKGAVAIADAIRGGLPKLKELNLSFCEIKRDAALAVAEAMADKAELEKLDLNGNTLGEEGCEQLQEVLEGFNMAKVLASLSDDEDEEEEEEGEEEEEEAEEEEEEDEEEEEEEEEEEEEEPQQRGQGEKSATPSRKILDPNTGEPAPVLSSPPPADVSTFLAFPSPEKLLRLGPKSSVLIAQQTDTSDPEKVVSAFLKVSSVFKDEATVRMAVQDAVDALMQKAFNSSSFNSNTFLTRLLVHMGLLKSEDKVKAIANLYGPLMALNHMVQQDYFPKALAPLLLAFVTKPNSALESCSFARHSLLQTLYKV
T1 sequence (P63165 1-97, chain 3 of 4, further chain): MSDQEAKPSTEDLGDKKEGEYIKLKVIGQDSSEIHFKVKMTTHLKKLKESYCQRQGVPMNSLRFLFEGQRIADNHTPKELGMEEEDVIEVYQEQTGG
T1 sequence (P63279 whole entry, chain 4 of 4, further chain, the tested form may be a part): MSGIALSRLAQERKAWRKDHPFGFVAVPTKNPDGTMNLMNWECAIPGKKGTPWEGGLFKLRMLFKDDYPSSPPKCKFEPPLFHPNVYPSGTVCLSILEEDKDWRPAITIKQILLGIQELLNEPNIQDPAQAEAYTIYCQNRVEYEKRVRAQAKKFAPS

B1: […]A/W880A (natural protein)
chain: not shown
notes: made from the Crm1-His construct; also called Crm1 double-mutant; source: bacterial expression, purified
binding result: binds
